To fix the notation:
B1: LINE1-mini (parent)
chain: GGCAGAGCUCAACACAGCGUGGCAAAGUGGCUGUGGCUAGACUGCC

The source gives no read counts; variants with many changes may rest on few reads.

The series covers variants of B1. Kind of series: self-cleavage, relative activity (ratio to wild type); higher = more cleavage; in vitro, sequencing; the parent is a self-cleaving ribozyme.
As for GGCAGAGCUAAACACAGCGUGGCAGAGUGGCUGUGGCUAAAAUGGC [C10A A25G G40A C42A C45G], the self-cleavage was 0.01.

As to GGCAGAGCUAAACACAGCGUGGCCAAUUGGCUGUGGCUAGACUGCC [C10A A24C G27U], the self-cleavage was determined as 0.05.

Consider GGCAGAGCUAAAAACAGCGUGGCAAAGUCGCUGUGGCUAGACUGCC [C10A C13A G29C], for which the self-cleavage was 0.02.

As for GGCAGAGCUAAACACAGCGUGGCAAGGAGGCUGUGCCUAGACUGCC [C10A A26G U28A G36C], the self-cleavage stood at 0.01.

As to GGCAGAGCUAAACACAGCGUGGCACAGUGGCUGUGGCUAGACUUCC [C10A A25C G44U], the self-cleavage is 0.01.

As to GGCAGAGCUAAACACGACGUUGCAAAGUGUCUGUGGGUUGACUGCG [C10A A16G G17A G21U G30U C37G A39U C46G], the self-cleavage was determined as 0.

Consider GGCAGAGCUAAAAACAUCGUGGCAAAGUGGCCGUGGGUAGACUGCC [C10A C13A G17U U32C C37G], for which the self-cleavage amounted to 0.01.

On to GGCAGAGCUAAACACGGCAUGGCAAAGUGGCUGUGGCUAUACUGCA [C10A A16G G19A G40U C46A], for which the self-cleavage was found to be 0.

Regarding GGCAGAGCUAAACACAGCGUGGCAAGGAGGCUGUGGCUAGACUGCC [C10A A26G U28A], the self-cleavage came out at 0.15.

In the case of GGCAGAGCUAAAGACAGCGUGGCAUAGAGGCUGUGGCUAGGCUGGC [C10A C13G A25U U28A A41G C45G], the self-cleavage was determined as 0.02.

For GGCAGAGCUAAAGACCGCGUGGCAAAGUGGCUGUGGCUAGACUACC [C10A C13G A16C G44A], the self-cleavage turned out to be 0.01.

On to GGCAGAGCUAAACACAGCGUGGCAAAGUGGCUGUGGCUAGUCGGCC [C10A A41U U43G], for which the self-cleavage was determined as 0.

Regarding GGCAGAGCUAAACACGGCGCGGCAAAGUGGCUGUGGCUAGACUGCC [C10A A16G U20C], the self-cleavage is 0.03.

As to GGCAGAGCUAAACUCAGCGUGGCAAAUUAGCUGUGGCUAGACUGCC [C10A A14U G27U G29A], the self-cleavage worked out at 0.04.

GGCAGAGCUAAACACAGCGUGGCAAGGUGGCUGUGGCUAGAAUGCC [C10A A26G C42A]: the self-cleavage turned out to be 0.01.

Turning to GGCAGAGCUAAACACAGCGUGGCAUAGUGGCUGCGGCUAGACUGCC [C10A A25U U34C], the self-cleavage is 0.01.

For GGCAGAGCUAAAAACAGCGUGGCAAGGUGGCUGUGGCUAGACUGCC [C10A C13A A26G], the self-cleavage worked out at 0.05.

With GGCAGAGCUAAACACAGCGUGGCAAAGUGGCUGUGGCUAGCCUGAC [C10A A41C C45A], the self-cleavage came out at 0.02.

As to GGCAGAGCUAAAUACAGCGUGGCAUAGUGGUUGUGGCUAGACUGCC [C10A C13U A25U C31U], the self-cleavage was determined as 0.04.

Regarding GGCAGAGCUAAAAACAGCGUUGCAAGGUGUCUGUGGCUAGACUGCC [C10A C13A G21U A26G G30U], the self-cleavage amounted to 0.03.

On to GGCAGAGCUAAAUACAGCGUGGCAAAGUGGAUGUGGCAAGACUGCC [C10A C13U C31A U38A], for which the self-cleavage came out at 0.06.

As for GGCAGAGCUAAACACUGCGUGGCAAAGUGGCUAUGGCUAGACUAUC [C10A A16U G33A G44A C45U], the self-cleavage is 0.02.

In the case of GGCAGAGCUAAACACAGCGUGGCAUAGUCGCUGUGGGUAGACUGCG [C10A A25U G29C C37G C46G], the self-cleavage was 0.01.

Regarding GGCAGAGCUAAACACAGCGUGGCGAAGCGGCUGUGGCUAGACUGUA [C10A A24G U28C C45U C46A], the self-cleavage is 0.02.

For GGCAGAGCUAAAUACAGCGUGGCAAAGUGGCUGUGGUUAGAAUGCC [C10A C13U C37U C42A], the self-cleavage amounted to 0.01.

For GGCAGAGCUAAACACCGCGUGGCAAAGUUGCUAUGUCUAGGCUGCC [C10A A16C G29U G33A G36U A41G], the self-cleavage was 0.01.

GGCAGAGCUAAAAACAGCGUGGCAAAGUGGCUGUGGCUAGACUGCA [C10A C13A C46A]: the self-cleavage was 0.04.

Regarding GGCAGAGCUAAACACAGCGUGGCUAAGUAGCUCUGGCUAGACUUCC [C10A A24U G29A G33C G44U], the self-cleavage came out at 0.02.

With GGCAGAGCUAAACACUGCGUGGCAAAAUGGCUGUGGCUAGACUGCC [C10A A16U G27A], the self-cleavage was found to be 0.05.

Regarding GGCAGAGCUAAAAACAGCGUGGCAAAGUGGCUGUGGAUAGCUUGCC [C10A C13A C37A A41C C42U], the self-cleavage was found to be 0.

In the case of GGCAGAGCUAAACACCGCGUGGCAAGGUGGCUGUGGCUAGACUGCC [C10A A16C A26G], the self-cleavage is 0.04.

Turning to GGCAGAGCUAAAUACGGCGUGGCAAAGUGGCUGUGGCUAUACUGGA [C10A C13U A16G G40U C45G C46A], the self-cleavage worked out at 0.01.

GGCAGAGCUAAACACAGCGUGGCAAAGUGGCUGUGGCUAGGCUGCU [C10A A41G C46U]: the self-cleavage turned out to be 0.04.

GGCAGAGCUAAAUACAGCAAGGCAAAGUGGCUCUGGCUAGACUGCC [C10A C13U G19A U20A G33C]: the self-cleavage turned out to be 0.01.

For GGCAGAGCUAAACACUGCGUGGCAAAGUGGCUUUGGCUAGACUGCC [C10A A16U G33U], the self-cleavage worked out at 0.04.

Take GGCAGAGCUAAAAACAGCUUGGCAAAGUGGCUGUGGCUAGACUGCC [C10A C13A G19U]: the self-cleavage was determined as 0.1.

Take GGCAGAGCUAAACACAGCGUGGCAGAUUGGCUGUGGCGAGACUACC [C10A A25G G27U U38G G44A]: the self-cleavage amounted to 0.02.

Regarding GGCAGAGCUAAACACAGCGUGGCCAAGUGGCUGUGGCAGGACUGCC [C10A A24C U38A A39G], the self-cleavage was determined as 0.02.

With GGCAGAGCUAAACACAGCGUGGCGAAGAGGUUGUGGCUAGACUACC [C10A A24G U28A C31U G44A], the self-cleavage was 0.03.

As for GGCAGAGCUAAACUCAGCGUGUCAAAGUGGCUGUGGCUAGACUGCC [C10A A14U G22U], the self-cleavage worked out at 0.17.

As for GGCAGAGCUAAACACAGCGUGGCGAAUUGGCUGUGGCUAGACAGCC [C10A A24G G27U U43A], the self-cleavage came to 0.02.

On to GGCAGAGCUAAACACUGCGUGGCAAAGUGGCUGGGGCUAGACUGCC [C10A A16U U34G], for which the self-cleavage stood at 0.03.

Turning to GGCAGAGCUAAAGACAGCGUGGUAAAGUGGCUGUGGCUUGACCGCG [C10A C13G C23U A39U U43C C46G], the self-cleavage was 0.01.

For the variant GGCAGAGCUAAACACAGCGUGGCCAAGUGGCUGUGGCUAGACUGCU [C10A A24C C46U], the self-cleavage stood at 0.03.

For GGCAGAGCUAAAAACAGCGUUGCACUGUGGCAGUGGCUAGAAUGCC [C10A C13A G21U A25C A26U U32A C42A], the self-cleavage amounted to 0.02.

Turning to GGCAGAGCUAAAUAGAGCGUGGCAAAGUGGCUGUGGCUAGACUGCC [C10A C13U C15G], the self-cleavage came out at 0.

On to GGCAGAGCUAAACACAGCGUGGCAGAGUGGCUGUGGCUAGACUGCG [C10A A25G C46G], for which the self-cleavage turned out to be 0.

GGCAGAGCUAAAUAAAGGGUGGCAAAGUGGCUGUGGCUUGACUUCC [C10A C13U C15A C18G A39U G44U]: the self-cleavage was 0.01.

As to GGCAGAGCUAAAAACAGUUUGGCAAAGUGGCUGUGGCUAGACUGCC [C10A C13A C18U G19U], the self-cleavage was 0.01.

Take GGCAGAGCUAAACACUGCGUGGCAAAGUGGCUGUGGCUAGUCUGCC [C10A A16U A41U]: the self-cleavage was 0.01.

Consider GGCAGAGCUAAACACAGCGUGGCAAGGUAGCUGUGGCUAGACUGCC [C10A A26G G29A], for which the self-cleavage amounted to 0.03.

Regarding GGCAGAGCUAAACACAGCGUGGCAUCGUGACUGUGGCUAGACUGCC [C10A A25U A26C G30A], the self-cleavage was 0.07.

As for GGCAGAGCUAAACACAGCGUGGCAACGUGGCUCUGGCUACACUGCC [C10A A26C G33C G40C], the self-cleavage amounted to 0.02.

For the variant GGCAGAGCUAAAUACAGCUUGGCAAAGUGGCUGUGGCUAGACUUCC [C10A C13U G19U G44U], the self-cleavage was found to be 0.

With GGCAGAGCUAAAGACAACGUGGCAAAGUGGCUGUGACUAGACUGGC [C10A C13G G17A G36A C45G], the self-cleavage stood at 0.05.

On to GGCAGAGCUAAACUCAGCGUGGCAAAGUGGCUGUGGCUAGACUGCG [C10A A14U C46G], for which the self-cleavage was 0.01.
